# Source: the supplement of paper PMC4604168 (melanoma cell lines)
# This is one part of the list. Many values rest on one well or one pass, so single values are uncertain.
# Columns and labels:
# Assay in all cases: cell count relative to DMSO control; melanoma cells; higher = more viable cells
# MeWo = settings: library dose: low library concentration; 72 h
# RPMI7951 = settings: library dose: low library concentration; 72 h
# RVH-421 = settings: library dose: low library concentration; 72 h
# SkMel28 = settings: library dose: low library concentration; 72 h
# SkMel30 = settings: library dose: low library concentration; 72 h
# UACC62 = settings: library dose: low library concentration; 72 h
# WM115 = settings: library dose: low library concentration; 72 h
# WM1716 = settings: library dose: low library concentration; 72 h
# WM1745 = settings: library dose: low library concentration; 72 h
# WM3526 = settings: library dose: low library concentration; 72 h
# WM3619 = settings: library dose: low library concentration; 72 h
# WM451Lu = settings: library dose: low library concentration; 72 h
# SkMel5 = settings: library dose: low library concentration; 72 h
# UACC257 = settings: library dose: low library concentration; 72 h
# 501Mel = settings: library dose: standard library concentration; 72 h
# A101D = settings: library dose: standard library concentration; 72 h
# A2058 = settings: library dose: standard library concentration; 72 h
# A375 = settings: library dose: standard library concentration; 72 h
# SkMel2 = settings: library dose: low library concentration; 72 h
compound,measurement,setting,value
"O=C(Nc1cc(C(F)(F)F)cc(C(F)(F)F)c1)c1cc(Cl)ccc1O + Nc1ccn([C@@H]2O[C@H](CO)[C@@H](O)C2(F)F)c(=O)n1 [gemcitabine] (first compound 0.016 µM, partner dose 0.0004 µM)",cell count,MeWo,103%
same,cell count,RPMI7951,73.3%
same,cell count,RVH-421,117%
same,cell count,SkMel28,90.5%
same,cell count,SkMel30,107%
same,cell count,UACC62,99.4%
same,cell count,WM115,93.5%
same,cell count,WM1716,87.8%
same,cell count,WM1745,81%
same,cell count,WM3526,105%
same,cell count,WM3619,83.6%
same,cell count,WM451Lu,106%
"Cn1nnc2c(C(N)=O)ncn2c1=O [temozolomide] + CCN(CC)CCCCNc1ncc2cc(-c3cc(OC)cc(OC)c3)c(NC(=O)NC(C)(C)C)nc2n1 [PD173074] (first compound 2 µM, partner dose 0.1 µM)",cell count,MeWo,105%
same,cell count,RPMI7951,95%
same,cell count,RVH-421,86.1%
same,cell count,SkMel28,70.6%
same,cell count,SkMel30,90.7%
same,cell count,SkMel5,100%
same,cell count,UACC257,80%
same,cell count,UACC62,85%
same,cell count,WM115,98.3%
same,cell count,WM1716,75.7%
same,cell count,WM1745,96.3%
same,cell count,WM3526,105%
same,cell count,WM3619,107%
same,cell count,WM451Lu,97.2%
"O=C(O)[C@@H]1[O][Sb](=[O])([O][Sb]2(=[O])[O][C@H]([C@H](O)CO)[C@H](O)[C@H](C(=O)O)[O]2)[O][C@H]([C@H](O)CO)[C@@H]1O (stereo partly specified) [stibogluconate] + CCN(CC)CCCCNc1ncc2cc(-c3cc(OC)cc(OC)c3)c(NC(=O)NC(C)(C)C)nc2n1 [PD173074] (first compound 10 µM, partner dose 0.5 µM)",cell count,501Mel,101%
same,cell count,A101D,111%
same,cell count,A2058,84.4%
same,cell count,A375,149%
"O=C(O)c1ccc2c(c1)nc(Nc1cccc(Cl)c1)c1ccncc12 + CCc1ccc(CCOc2ccc(CC3SC(=O)NC3=O)cc2)nc1 [pioglitazone] (first compound 2 µM, partner dose 10 µM)",cell count,501Mel,44.8%
same,cell count,A101D,86.1%
same,cell count,A2058,81.6%
same,cell count,A375,75.5%
"O=C(Nc1ccccc1)c1cc([N+](=O)[O-])ccc1Cl + Cc1cc([N+](=O)[O-])ccc1NS(=O)(=O)c1cc(Cl)ccc1Cl [FH535] (first compound 2 µM, partner dose 1 µM)",cell count,MeWo,80.5%
same,cell count,RPMI7951,110%
same,cell count,RVH-421,91.4%
same,cell count,SkMel28,96.3%
same,cell count,SkMel30,99.2%
same,cell count,SkMel5,82%
same,cell count,UACC257,104%
same,cell count,UACC62,89.9%
same,cell count,WM115,94%
same,cell count,WM1716,101%
same,cell count,WM1745,82.6%
same,cell count,WM3526,81.8%
same,cell count,WM3619,96.3%
same,cell count,WM451Lu,107%
"Cn1nnc2c(C(N)=O)ncn2c1=O [temozolomide] + Cn1cc(/C=C2\C(=O)Nc3cccnc32)c2ccccc21 [GW441756] (first compound 10 µM, partner dose 2 µM)",cell count,501Mel,72.5%
same,cell count,A101D,70.1%
same,cell count,A2058,45.8%
same,cell count,A375,110%
"O=C(O)[C@@H]1[O][Sb](=[O])([O][Sb]2(=[O])[O][C@H]([C@H](O)CO)[C@H](O)[C@H](C(=O)O)[O]2)[O][C@H]([C@H](O)CO)[C@@H]1O (stereo partly specified) [stibogluconate] + Oc1cc(-c2nc(-c3ccccc3)[nH]c2-c2ccncc2)ccc1Cl [L779450] (first compound 10 µM, partner dose 1 µM)",cell count,501Mel,82%
same,cell count,A101D,58.5%
same,cell count,A2058,96.6%
same,cell count,A375,65.5%
"O=C(Nc1cc(C(F)(F)F)cc(C(F)(F)F)c1)c1cc(Cl)ccc1O + CC(=O)O[C@@]12CO[C@@H]1C[C@H](O)[C@@]1(C)C(=O)[C@H](O)C3=C(C)[C@@H](OC(=O)[C@H](O)[C@@H](NC(=O)OC(C)(C)C)c4ccccc4)C[C@@](O)([C@@H](OC(=O)c4ccccc4)[C@H]21)C3(C)C [Docetaxel] (first compound 0.016 µM, partner dose 0.0001 µM)",cell count,MeWo,54.2%
same,cell count,RPMI7951,51.5%
same,cell count,RVH-421,78.7%
same,cell count,SkMel28,67.7%
same,cell count,SkMel30,53.5%
same,cell count,UACC62,48.6%
same,cell count,WM115,71.9%
same,cell count,WM1716,55.2%
same,cell count,WM1745,72.6%
same,cell count,WM3526,75%
same,cell count,WM3619,82.2%
same,cell count,WM451Lu,59.9%
"O=C(O)c1ccc2c(c1)nc(Nc1cccc(Cl)c1)c1ccncc12 + c1cc(-c2cnn3cc(-c4ccc(OCCN5CCCCC5)cc4)cnc23)ccn1 [Dorsomorphin] (first compound 0.4 µM, partner dose 0.4 µM)",cell count,MeWo,78.3%
same,cell count,RPMI7951,109%
same,cell count,RVH-421,101%
same,cell count,SkMel28,92.9%
same,cell count,SkMel30,84.1%
same,cell count,SkMel5,93.7%
same,cell count,UACC257,76.9%
same,cell count,UACC62,94.7%
same,cell count,WM115,96.6%
same,cell count,WM1716,86.2%
same,cell count,WM1745,66.7%
same,cell count,WM3526,82.9%
same,cell count,WM3619,101%
same,cell count,WM451Lu,89.7%
"O=C(Nc1cc(C(F)(F)F)cc(C(F)(F)F)c1)c1cc(Cl)ccc1O + COC(=O)c1sccc1S(=O)(=O)Nc1ccc(Nc2ccccc2)cc1OC [GSK0660] (first compound 0.08 µM, partner dose 5 µM)",cell count,501Mel,81.9%
same,cell count,A101D,92.8%
same,cell count,A2058,97.5%
same,cell count,A375,122%
"Cc1cc(N2CCOCC2)cc2[nH]c(-c3c(NC[C@@H](O)c4cccc(Cl)c4)cc[nH]c3=O)nc12 + Oc1nc(-c2ccc(C(F)(F)F)cc2)nc2c1CSCC2 [XAV939] (first compound 0.2 µM, partner dose 2 µM)",cell count,MeWo,99.5%
same,cell count,RPMI7951,95.7%
same,cell count,RVH-421,100%
same,cell count,SkMel28,91.5%
same,cell count,SkMel30,109%
same,cell count,SkMel5,91.1%
same,cell count,UACC257,77%
same,cell count,UACC62,92.4%
same,cell count,WM115,110%
same,cell count,WM1716,77.2%
same,cell count,WM1745,61.6%
same,cell count,WM3526,90.3%
same,cell count,WM3619,86.3%
same,cell count,WM451Lu,102%
"Cn1nnc2c(C(N)=O)ncn2c1=O [temozolomide] + COc1ccc2c(c1)CCC1C2CCC2(C)C(NCCCCCCN3C(=O)C=CC3=O)CCC12 [U73122] (first compound 10 µM, partner dose 2 µM)",cell count,501Mel,92.9%
same,cell count,A101D,49.5%
same,cell count,A2058,40.3%
same,cell count,A375,76.7%
"Cc1cc(N2CCOCC2)cc2[nH]c(-c3c(NC[C@@H](O)c4cccc(Cl)c4)cc[nH]c3=O)nc12 + O=C(O)C(=O)Nc1sc2c(c1C(=O)O)CCNC2 [TCS401] (first compound 1 µM, partner dose 8.33333 µM)",cell count,501Mel,79%
same,cell count,A101D,87.5%
same,cell count,A2058,96.3%
same,cell count,A375,178%
"O=C(Nc1ccccc1)c1cc([N+](=O)[O-])ccc1Cl + COc1ccc(-c2ccc3c(N4CCOCC4)nc(N4C[C@@H](C)O[C@@H](C)C4)nc3n2)cc1CO [KU0063794] (first compound 2 µM, partner dose 0.02 µM)",cell count,MeWo,85.1%
same,cell count,RPMI7951,105%
same,cell count,RVH-421,104%
same,cell count,SkMel28,92.5%
same,cell count,SkMel30,109%
same,cell count,SkMel5,85.7%
same,cell count,UACC257,87.4%
same,cell count,UACC62,91.2%
same,cell count,WM115,83.7%
same,cell count,WM1716,95.7%
same,cell count,WM1745,82.8%
same,cell count,WM3526,103%
same,cell count,WM3619,84.9%
same,cell count,WM451Lu,102%
"Cn1nnc2c(C(N)=O)ncn2c1=O [temozolomide] + Oc1nc(-c2ccc(C(F)(F)F)cc2)nc2c1CSCC2 [XAV939] (first compound 2 µM, partner dose 2 µM)",cell count,MeWo,92.3%
same,cell count,RPMI7951,86.3%
same,cell count,RVH-421,82.8%
same,cell count,SkMel28,77.6%
same,cell count,SkMel30,106%
same,cell count,SkMel5,87.6%
same,cell count,UACC257,83%
same,cell count,UACC62,64.4%
same,cell count,WM115,92.6%
same,cell count,WM1716,61.5%
same,cell count,WM1745,89.9%
same,cell count,WM3526,116%
same,cell count,WM3619,83.5%
same,cell count,WM451Lu,100%
"Cc1cc(N2CCOCC2)cc2[nH]c(-c3c(NC[C@@H](O)c4cccc(Cl)c4)cc[nH]c3=O)nc12 + O=c1cc(-c2cccc3c2Sc2ccccc2S3)oc(N2CCOCC2)c1 [KU55933] (first compound 1 µM, partner dose 5 µM)",cell count,501Mel,63.6%
same,cell count,A101D,95.6%
same,cell count,A2058,83.7%
same,cell count,A375,120%
"O=C(O)[C@@H]1[O][Sb](=[O])([O][Sb]2(=[O])[O][C@H]([C@H](O)CO)[C@H](O)[C@H](C(=O)O)[O]2)[O][C@H]([C@H](O)CO)[C@@H]1O (stereo partly specified) [stibogluconate] + Nc1ncn([C@H]2C[C@H](O)[C@@H](CO)O2)c(=O)n1 [decitabine] (first compound 2 µM, partner dose 0.1 µM)",cell count,MeWo,98.9%
same,cell count,RPMI7951,105%
same,cell count,RVH-421,90.3%
same,cell count,SkMel28,110%
same,cell count,SkMel2,106%
same,cell count,SkMel30,101%
same,cell count,UACC62,64.5%
same,cell count,WM115,88.4%
same,cell count,WM1716,110%
same,cell count,WM1745,106%
same,cell count,WM3526,116%
same,cell count,WM3619,97.7%
same,cell count,WM451Lu,108%
"Cc1cc(N2CCOCC2)cc2[nH]c(-c3c(NC[C@@H](O)c4cccc(Cl)c4)cc[nH]c3=O)nc12 + Oc1cc(-c2nc(-c3ccccc3)[nH]c2-c2ccncc2)ccc1Cl [L779450] (first compound 0.2 µM, partner dose 0.2 µM)",cell count,MeWo,95%
same,cell count,RPMI7951,93%
same,cell count,RVH-421,72.5%
same,cell count,SkMel28,75.2%
same,cell count,SkMel30,109%
same,cell count,SkMel5,108%
same,cell count,UACC257,91.1%
same,cell count,UACC62,55.3%
same,cell count,WM115,78.6%
same,cell count,WM1716,121%
same,cell count,WM1745,61.5%
same,cell count,WM3526,61.1%
same,cell count,WM3619,80%
same,cell count,WM451Lu,100%
"O=C(O)[C@@H]1[O][Sb](=[O])([O][Sb]2(=[O])[O][C@H]([C@H](O)CO)[C@H](O)[C@H](C(=O)O)[O]2)[O][C@H]([C@H](O)CO)[C@@H]1O (stereo partly specified) [stibogluconate] + c1cc(-c2cnn3cc(-c4ccc(OCCN5CCCCC5)cc4)cnc23)ccn1 [Dorsomorphin] (first compound 10 µM, partner dose 2 µM)",cell count,501Mel,93.5%
same,cell count,A101D,107%
same,cell count,A2058,99.3%
same,cell count,A375,99.6%
